# Measured values reported in the supplement of paper PMC11125491.
# ± gives the standard deviation of the averaged measurements. Growth of baker's yeast expressing single-residue variants of Pneumocystis jirovecii dihydrofolate reductase in 8.8 or 44 µM methotrexate (about 75% and 90% inhibition of the wild type). Selection coefficient per generation; 0 = like wild type, above 0 = less sensitive, below 0 = more sensitive or loss of function. No active / inactive call per row; the paper calls resistant above 0.220 (8.8 µM) or 0.243 (44 µM) together with a significance test. At 44 µM about 15% of codons end with one read or none, so the lowest values are floors (replicate rank correlation 0.74; 0.94 at 8.8 µM).
# B1: UniProt A0EPZ9; numbered along this chain (parent)
# chain: MDWQKSLTLIVALTLSRGIGLKNDLPWKLKSDMMFFSRVTSGLLVTRSTGQMNVVLMGRKTWESLPAHSRPLKNRINVVISRQEVLDLGGGAYHARSLDDALALLSQIYDSTSKIQLNRVFVIGGGELCKAAMEHSRLNRIIATVIHNEVDCDVFFPIDFRSSQSCLPWRKQDHSVLEAWVGSKVPQGKINENGFIYEFEMWIRDI
# Variants of: B1
# Assay: selection coefficient against synonymous wild-type codons (log2 per generation); higher = faster growth than wild type
# Settings: with Saccharomyces cerevisiae carrying the variant on a plasmid
# Protocol: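 Pooled growth of yeast carrying single-residue variants of P. jirovecii dihydrofolate reductase (own DFR1 gene intact), two passages at 30 °C, three cultures, sequenced before and after. Codons with under 15 starting reads are left out; codons of one change are averaged.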
Variant,selection coefficient against synonymous wild-type codons (log2) (methotrexate 8.8 µM),selection coefficient against synonymous wild-type codons (log2) (methotrexate 44 µM)
Q187P,-0.0819 ± 0.046,-0.127 ± 0.12
Q187R,-0.0735 ± 0.045,-0.102 ± 0.083
Q187S,-0.0263 ± 0.042,-0.148 ± 0.074
Q187T,-0.0551 ± 0.069,-0.106 ± 0.15
Q187V,-0.084 ± 0.043,-0.2 ± 0.14
Q187W,-0.313 ± 0.028,-0.0628 ± 0.15
Q187Y,-0.188 ± 0.033,-0.274 ± 0.058
G188A,-0.0985 ± 0.087,-0.248 ± 0.067
G188C,-0.171 ± 0.07,-0.18 ± 0.021
G188D,-0.0282 ± 0.057,0.0271 ± 0.11
G188E,-0.0205 ± 0.066,-0.0372 ± 0.062
G188F,-0.137 ± 0.047,-0.12 ± 0.031
G188I,-0.263 ± 0.2,-0.12 ± 0.1
G188K,0.00953 ± 0.07,-0.145 ± 0.13
G188L,-0.161 ± 0.063,-0.235 ± 0.087
G188M,-0.106 ± 0.071,0.0656 ± 0.07
G188P,-0.252 ± 0.18,-0.078 ± 0.071
G188Q,-0.174 ± 0.066,-0.211 ± 0.057
G188R,-0.0887 ± 0.068,-0.158 ± 0.11
G188S,-0.107 ± 0.066,-0.0842 ± 0.089
G188T,-0.138 ± 0.062,-0.18 ± 0.2
G188V,-0.164 ± 0.05,-0.246 ± 0.058
G188W,-0.262 ± 0.052,-0.331 ± 0.095
K189A,-0.0978 ± 0.028,-0.108 ± 0.11

Variant,selection coefficient against synonymous wild-type codons (log2) (methotrexate 8.8 µM),selection coefficient against synonymous wild-type codons (log2) (methotrexate 44 µM)
K189C,-0.0426 ± 0.15,-0.263 ± 0.05
K189D,0.00138 ± 0.044,-0.13 ± 0.08
K189E,-0.00421 ± 0.026,0.0016 ± 0.068
K189G,-0.0924 ± 0.029,-0.147 ± 0.12
K189H,-0.131 ± 0.02,-0.198 ± 0.058
K189L,-0.108 ± 0.069,-0.0761 ± 0.078
K189M,-0.0993 ± 0.025,-0.107 ± 0.14
K189P,0.00852 ± 0.052,-0.0149 ± 0.099
K189Q,-0.0594 ± 0.046,-0.12 ± 0.036
K189R,-0.124 ± 0.045,-0.141 ± 0.081
K189S,-0.105 ± 0.039,-0.103 ± 0.073
K189T,-0.0605 ± 0.094,-0.0482 ± 0.097
K189V,-0.109 ± 0.018,-0.119 ± 0.097
K189W,-0.26 ± 0.016,-0.263 ± 0.0033
I190A,-0.228 ± 0.057,-0.256 ± 0.18
I190C,-0.168 ± 0.07,-0.273 ± 0.018
I190D,-0.245 ± 0.069,-0.299 ± 0.14
I190E,-0.133 ± 0.03,-0.227 ± 0.17
I190F,-0.19 ± 0.033,-0.152 ± 0.14
I190G,-0.291 ± 0.095,-0.375 ± 0.14
I190H,-0.191 ± 0.049,-0.28 ± 0.12
I190K,-0.118 ± 0.053,-0.312 ± 0.19
I190L,-0.15 ± 0.054,-0.217 ± 0.14
I190M,-0.168 ± 0.032,-0.235 ± 0.11

Variant,selection coefficient against synonymous wild-type codons (log2) (methotrexate 8.8 µM),selection coefficient against synonymous wild-type codons (log2) (methotrexate 44 µM)
I190N,-0.134 ± 0.054,-0.0983 ± 0.059
I190P,-0.202 ± 0.077,-0.261 ± 0.12
I190Q,-0.0486 ± 0.036,-0.118 ± 0.15
I190R,-0.168 ± 0.045,-0.266 ± 0.13
I190S,-0.176 ± 0.061,-0.258 ± 0.16
I190T,-0.0716 ± 0.034,-0.283 ± 0.16
I190V,-0.0297 ± 0.038,-0.0552 ± 0.044
I190W,-0.335 ± 0.043,-0.341 ± 0.17
I190Y,-0.301 ± 0.15,-0.181 ± 0.071
N191A,-0.0302 ± 0.039,-0.0921 ± 0.13
N191C,-0.087 ± 0.041,-0.111 ± 0.12
N191D,0.0297 ± 0.023,0.0227 ± 0.0077
N191E,0.0715 ± 0.027,0.0444 ± 0.079
N191F,-0.157 ± 0.0089,-0.194 ± 0.21
N191G,-0.105 ± 0.047,-0.147 ± 0.068
N191H,-0.0624 ± 0.18,-0.0246 ± 0.2
N191I,-0.0913 ± 0.038,-0.000751 ± 0.14
N191K,0.0249 ± 0.053,-0.0221 ± 0.051
N191L,-0.117 ± 0.14,0.124 ± 0.41
N191M,-0.11 ± 0.057,-0.17 ± 0.02
N191P,-0.195 ± 0.071,-0.248 ± 0.14
N191Q,-0.02 ± 0.019,-0.144 ± 0.09
N191R,-0.0369 ± 0.067,-0.143 ± 0.12
N191S,0.0493 ± 0.16,0.0855 ± 0.31

Variant,selection coefficient against synonymous wild-type codons (log2) (methotrexate 8.8 µM),selection coefficient against synonymous wild-type codons (log2) (methotrexate 44 µM)
N191T,-0.0751 ± 0.049,-0.17 ± 0.18
N191V,-0.0496 ± 0.05,-0.118 ± 0.071
N191W,-0.352 ± 0.081,-0.287 ± 0.13
N191Y,-0.108 ± 0.043,-0.0252 ± 0.01
E192A,0.065 ± 0.057,0.0304 ± 0.065
E192C,0.0413 ± 0.038,0.0149 ± 0.053
E192D,-0.00218 ± 0.021,-0.021 ± 0.081
E192F,-0.0478 ± 0.045,-0.139 ± 0.17
E192G,0.0309 ± 0.053,-0.0505 ± 0.058
E192H,0.124 ± 0.05,0.0522 ± 0.19
E192K,0.173 ± 0.07,0.201 ± 0.025
E192L,-0.0621 ± 0.083,-0.0967 ± 0.062
E192M,-0.00406 ± 0.064,-0.0539 ± 0.14
E192N,0.162 ± 0.021,0.115 ± 0.071
E192P,-0.0269 ± 0.1,-0.191 ± 0.093
E192Q,0.0842 ± 0.052,0.0409 ± 0.13
E192R,0.154 ± 0.066,0.16 ± 0.074
E192S,0.0414 ± 0.039,0.00454 ± 0.1
E192T,0.0184 ± 0.048,-0.0321 ± 0.15
E192V,0.0685 ± 0.024,0.0297 ± 0.062
E192W,-0.102 ± 0.083,-0.209 ± 0.097
E192Y,0.00428 ± 0.026,-0.103 ± 0.089
N193A,-0.0711 ± 0.013,-0.12 ± 0.049
N193C,-0.143 ± 0.11,-0.106 ± 0.059

Variant,selection coefficient against synonymous wild-type codons (log2) (methotrexate 8.8 µM),selection coefficient against synonymous wild-type codons (log2) (methotrexate 44 µM)
N193D,0.0395 ± 0.029,0.0243 ± 0.14
N193E,0.00134 ± 0.026,-0.00226 ± 0.025
N193F,-0.148 ± 0.028,0.0167 ± 0.017
N193G,0.00205 ± 0.052,-0.0548 ± 0.14
N193H,-0.0702 ± 0.096,-0.159 ± 0.068
N193I,-0.421 ± 0.13,-0.252 ± 0.04
N193K,0.0064 ± 0.057,-0.0115 ± 0.031
N193L,-0.18 ± 0.049,-0.145 ± 0.11
N193M,-0.139 ± 0.042,-0.15 ± 0.071
N193P,0.0542 ± 0.082,0.102 ± 0.13
N193Q,-0.0175 ± 0.075,-0.067 ± 0.12
N193R,-0.104 ± 0.085,-0.204 ± 0.16
N193S,-0.0375 ± 0.035,-0.105 ± 0.18
N193T,-0.0817 ± 0.067,-0.0846 ± 0.26
N193V,-0.237 ± 0.042,-0.316 ± 0.17
N193W,-0.331 ± 0.057,-0.399 ± 0.053
N193Y,-0.411 ± 0.08,-0.224 ± 0.18
G194A,-0.22 ± 0.11,-0.248 ± 0.083
G194C,-0.233 ± 0.038,-0.0629 ± 0.098
G194D,-0.0589 ± 0.036,-0.0608 ± 0.17
